Data on seven substances can be found in article PMC6753376.

A number of entries come with more than one value. This list holds those alone. The source may hold further records. Some protein pairs were linked at several places, one record each.

Among the targets are CCT2 (UniProt P78371); CCT3 (UniProt P49368); CCT4 (UniProt P50991); MCM7 (UniProt P33993); PSME2 (UniProt Q9UL46); SMC4 (UniProt Q9NTJ3).
Test in all cases: cross-linking mass spectrometry
Common to all, as to settings: lysate

Sequence of SMC2 (O95347 whole entry): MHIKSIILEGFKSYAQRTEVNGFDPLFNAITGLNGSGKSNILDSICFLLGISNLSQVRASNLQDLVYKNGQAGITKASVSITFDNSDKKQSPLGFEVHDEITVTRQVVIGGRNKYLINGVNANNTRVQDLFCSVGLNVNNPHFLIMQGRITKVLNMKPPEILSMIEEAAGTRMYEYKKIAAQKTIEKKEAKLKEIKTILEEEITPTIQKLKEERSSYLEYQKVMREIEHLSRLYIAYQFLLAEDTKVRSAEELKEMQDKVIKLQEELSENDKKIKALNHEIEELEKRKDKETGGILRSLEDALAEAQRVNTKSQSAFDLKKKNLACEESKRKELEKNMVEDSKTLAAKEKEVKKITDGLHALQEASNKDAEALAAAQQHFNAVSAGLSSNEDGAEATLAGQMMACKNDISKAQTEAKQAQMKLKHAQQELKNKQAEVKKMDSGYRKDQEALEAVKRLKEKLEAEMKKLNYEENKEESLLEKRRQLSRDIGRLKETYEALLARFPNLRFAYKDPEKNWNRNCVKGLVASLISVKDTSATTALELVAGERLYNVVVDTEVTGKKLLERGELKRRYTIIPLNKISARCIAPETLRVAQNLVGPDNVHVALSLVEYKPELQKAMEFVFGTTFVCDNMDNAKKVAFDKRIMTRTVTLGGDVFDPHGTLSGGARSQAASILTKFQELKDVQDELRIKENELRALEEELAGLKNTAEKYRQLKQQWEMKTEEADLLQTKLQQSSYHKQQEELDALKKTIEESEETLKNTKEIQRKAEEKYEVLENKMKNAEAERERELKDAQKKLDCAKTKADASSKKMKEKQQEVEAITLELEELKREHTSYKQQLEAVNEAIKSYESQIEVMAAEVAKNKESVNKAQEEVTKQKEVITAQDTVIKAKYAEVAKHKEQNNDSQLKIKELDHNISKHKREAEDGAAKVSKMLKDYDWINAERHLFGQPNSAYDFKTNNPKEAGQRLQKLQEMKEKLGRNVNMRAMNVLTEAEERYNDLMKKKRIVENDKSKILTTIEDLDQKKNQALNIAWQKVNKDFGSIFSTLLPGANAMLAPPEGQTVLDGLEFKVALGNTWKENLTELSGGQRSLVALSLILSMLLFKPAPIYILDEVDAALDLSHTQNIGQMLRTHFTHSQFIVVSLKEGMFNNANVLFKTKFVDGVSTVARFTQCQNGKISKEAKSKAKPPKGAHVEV
Sequence of UniProt P49368 (P49368 whole entry): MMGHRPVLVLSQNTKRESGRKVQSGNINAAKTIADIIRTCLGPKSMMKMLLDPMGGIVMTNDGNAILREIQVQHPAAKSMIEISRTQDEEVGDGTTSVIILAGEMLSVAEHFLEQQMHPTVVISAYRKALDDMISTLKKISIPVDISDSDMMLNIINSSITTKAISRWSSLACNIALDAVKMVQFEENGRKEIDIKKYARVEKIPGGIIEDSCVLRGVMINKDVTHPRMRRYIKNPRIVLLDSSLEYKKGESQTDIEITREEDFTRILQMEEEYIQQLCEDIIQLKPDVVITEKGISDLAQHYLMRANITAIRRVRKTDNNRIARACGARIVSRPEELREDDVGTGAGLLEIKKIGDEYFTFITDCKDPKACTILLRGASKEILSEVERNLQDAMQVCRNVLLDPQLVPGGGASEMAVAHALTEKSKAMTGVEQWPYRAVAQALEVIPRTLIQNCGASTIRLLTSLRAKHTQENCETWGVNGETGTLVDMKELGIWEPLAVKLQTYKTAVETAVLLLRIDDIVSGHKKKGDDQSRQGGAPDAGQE
Sequence of UniProt Q9NTJ3 (Q9NTJ3 whole entry): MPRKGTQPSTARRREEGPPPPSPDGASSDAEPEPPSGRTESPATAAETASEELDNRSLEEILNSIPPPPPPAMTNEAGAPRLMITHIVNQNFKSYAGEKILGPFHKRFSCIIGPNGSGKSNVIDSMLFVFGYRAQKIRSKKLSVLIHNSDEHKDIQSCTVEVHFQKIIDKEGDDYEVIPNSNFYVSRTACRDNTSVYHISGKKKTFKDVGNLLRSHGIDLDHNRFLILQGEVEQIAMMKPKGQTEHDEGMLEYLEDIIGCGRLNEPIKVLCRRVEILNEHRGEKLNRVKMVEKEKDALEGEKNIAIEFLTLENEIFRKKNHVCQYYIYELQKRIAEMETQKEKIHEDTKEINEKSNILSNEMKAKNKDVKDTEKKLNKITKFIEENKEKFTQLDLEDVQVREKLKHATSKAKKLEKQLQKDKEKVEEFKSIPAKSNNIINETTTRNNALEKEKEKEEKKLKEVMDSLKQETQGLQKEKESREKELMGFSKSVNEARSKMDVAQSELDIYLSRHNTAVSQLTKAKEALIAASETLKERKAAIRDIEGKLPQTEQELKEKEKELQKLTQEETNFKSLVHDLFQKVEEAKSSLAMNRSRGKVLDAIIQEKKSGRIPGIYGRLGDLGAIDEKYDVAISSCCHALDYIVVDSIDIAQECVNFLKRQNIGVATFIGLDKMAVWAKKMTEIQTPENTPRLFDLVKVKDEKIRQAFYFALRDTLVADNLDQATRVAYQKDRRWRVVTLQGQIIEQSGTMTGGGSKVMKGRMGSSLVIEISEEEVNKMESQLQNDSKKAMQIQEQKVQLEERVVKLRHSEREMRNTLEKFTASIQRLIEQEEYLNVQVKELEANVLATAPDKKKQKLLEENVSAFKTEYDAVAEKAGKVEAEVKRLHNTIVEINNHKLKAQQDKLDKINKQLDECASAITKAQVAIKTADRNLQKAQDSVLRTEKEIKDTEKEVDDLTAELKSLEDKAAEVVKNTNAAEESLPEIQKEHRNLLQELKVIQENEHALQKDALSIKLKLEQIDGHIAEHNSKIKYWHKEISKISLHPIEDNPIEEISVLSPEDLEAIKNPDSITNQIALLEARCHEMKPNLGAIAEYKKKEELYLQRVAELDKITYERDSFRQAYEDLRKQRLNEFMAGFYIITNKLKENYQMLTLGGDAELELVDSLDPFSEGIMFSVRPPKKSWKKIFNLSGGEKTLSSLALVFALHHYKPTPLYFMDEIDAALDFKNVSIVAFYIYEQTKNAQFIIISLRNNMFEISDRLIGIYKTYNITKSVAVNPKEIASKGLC
Sequence of CCT4 (P50991 whole entry): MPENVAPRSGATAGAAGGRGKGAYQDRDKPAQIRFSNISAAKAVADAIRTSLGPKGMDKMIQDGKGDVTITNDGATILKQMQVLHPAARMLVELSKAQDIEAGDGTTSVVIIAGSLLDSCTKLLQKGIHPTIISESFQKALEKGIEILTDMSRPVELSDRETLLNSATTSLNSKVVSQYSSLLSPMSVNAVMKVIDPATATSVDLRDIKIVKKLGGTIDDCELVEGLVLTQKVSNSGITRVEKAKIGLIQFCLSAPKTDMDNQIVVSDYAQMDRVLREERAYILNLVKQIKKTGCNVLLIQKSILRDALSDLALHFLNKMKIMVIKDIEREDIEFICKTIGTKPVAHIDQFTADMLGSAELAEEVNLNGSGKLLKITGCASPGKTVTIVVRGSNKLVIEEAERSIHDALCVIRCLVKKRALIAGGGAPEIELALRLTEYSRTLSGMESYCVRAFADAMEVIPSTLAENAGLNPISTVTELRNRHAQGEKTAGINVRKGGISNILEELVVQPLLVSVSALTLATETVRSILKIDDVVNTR
Sequence of UniProt P78371 (P78371 whole entry): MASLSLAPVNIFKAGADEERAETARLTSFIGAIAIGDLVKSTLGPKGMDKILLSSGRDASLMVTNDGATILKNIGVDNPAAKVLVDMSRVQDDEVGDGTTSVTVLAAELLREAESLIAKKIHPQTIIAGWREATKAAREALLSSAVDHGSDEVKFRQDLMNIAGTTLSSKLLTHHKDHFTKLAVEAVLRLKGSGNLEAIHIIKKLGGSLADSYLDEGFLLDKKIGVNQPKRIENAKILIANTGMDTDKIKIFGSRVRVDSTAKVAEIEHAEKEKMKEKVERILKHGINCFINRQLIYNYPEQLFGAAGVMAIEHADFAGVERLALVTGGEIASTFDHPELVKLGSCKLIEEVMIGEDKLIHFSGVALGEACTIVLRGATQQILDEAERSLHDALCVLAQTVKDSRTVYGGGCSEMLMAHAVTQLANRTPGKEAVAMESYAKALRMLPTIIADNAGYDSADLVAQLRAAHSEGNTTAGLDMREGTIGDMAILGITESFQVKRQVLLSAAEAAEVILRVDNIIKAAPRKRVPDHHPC
Sequence of UniProt Q9UL46 (Q9UL46 whole entry): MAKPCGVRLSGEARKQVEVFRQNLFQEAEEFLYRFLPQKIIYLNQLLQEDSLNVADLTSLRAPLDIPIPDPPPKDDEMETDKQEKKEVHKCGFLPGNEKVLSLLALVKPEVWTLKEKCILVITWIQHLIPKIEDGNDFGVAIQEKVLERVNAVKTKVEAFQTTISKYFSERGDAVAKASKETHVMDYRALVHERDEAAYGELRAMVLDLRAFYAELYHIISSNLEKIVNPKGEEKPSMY
Sequence of PSME1 (Q06323 whole entry): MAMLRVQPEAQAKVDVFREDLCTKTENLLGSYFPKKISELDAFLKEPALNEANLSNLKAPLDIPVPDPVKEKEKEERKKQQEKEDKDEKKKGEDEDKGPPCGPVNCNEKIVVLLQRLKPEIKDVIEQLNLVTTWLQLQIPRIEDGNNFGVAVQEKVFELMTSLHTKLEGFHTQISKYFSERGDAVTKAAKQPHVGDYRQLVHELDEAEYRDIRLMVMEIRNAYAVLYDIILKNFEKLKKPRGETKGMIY
Sequence of CCT4, P50991 (P50991 whole entry): as the sequence (P50991 whole entry) above

For the substance CCT4, P50991, the cross-linked residues entry in the experiment with CCT2 is “P2 - K120 and P2 - K522 and S9 - K522 and K21 - K120 and K21 - K522 and K29 - K120”.

For CCT5, P48643, the cross-linked residues result with CCT2 was “K275 - K284 and K368 - K342 and K368 - K402”.

For TCP1, P17987, the cross-linked residues entry with CCT3 was “K63 - K529 and K494 - K128”; in the experiment with CCT4, “K126 - K55 and K532 - P2”.

CCT6A, P40227: the cross-linked residues result with CCT3 is “K10 - K21 and K530 - K381”.

For MCM4, P33991, the cross-linked residues result with MCM7 is “K409 - K174 and K627 - K596”.

Turning to PSME1, Q06323, in the experiment with PSME2, the cross-linked residues entry is “K187 - K180 and K190 - K177 and K190 - K180”.

In the case of SMC2, O95347, in the experiment with SMC4, the cross-linked residues entry was “K320 - K405 and K493 - K573 and K911 - K1009 and K930 - K1031”.
